Some of the results follow. These are noisy estimates, calculated here from bound and input reads.

This assay has as its target T1, Pho4 (S. cerevisiae) (UniProt P07270).
T1 sequence: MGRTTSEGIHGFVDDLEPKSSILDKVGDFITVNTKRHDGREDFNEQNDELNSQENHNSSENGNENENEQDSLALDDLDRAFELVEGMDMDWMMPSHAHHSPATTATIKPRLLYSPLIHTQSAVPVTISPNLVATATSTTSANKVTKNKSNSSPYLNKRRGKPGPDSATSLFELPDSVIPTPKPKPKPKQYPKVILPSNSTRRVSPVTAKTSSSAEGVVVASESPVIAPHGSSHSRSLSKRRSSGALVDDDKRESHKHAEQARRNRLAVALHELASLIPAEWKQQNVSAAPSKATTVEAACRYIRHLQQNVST
Description: relative binding free energy (BET-seq); higher = weaker binding. Particulars: reference: library average.
For TTTGGCACGTGGAGGC, the “relative binding free energy” value came out at 0.06 kcal/mol.
With GTTTCCACGTGTAGTG the figure was 0.03 kcal/mol.
The value for ATGCTCACGTGTTAAT was 0.24 kcal/mol.
For the sequence CGATTCACGTGCGTGT, the “relative binding free energy” value came to 0.22 kcal/mol.
The value for GCCTTCACGTGGTTGT was 0.22 kcal/mol; that for GGCTTCACGTGACGTG was 0.36 kcal/mol.
The value for GAGGGCACGTGTGGAT was -0.05 kcal/mol; that for GTTGACACGTGATGTC was 0.32 kcal/mol.
For the sequence AGCGACACGTGGTGTT, the “relative binding free energy” value is -0.16 kcal/mol.
On to TTATGCACGTGGTACG, for which the “relative binding free energy” value is -0.06 kcal/mol.
The value for ATGGGCACGTGTAGCG was -0.11 kcal/mol.
With TGCATCACGTGGGGTC the figure was 0.03 kcal/mol; with AGAGTCACGTGTTATA, -0.01 kcal/mol.
As for ATAGTCACGTGAGGTA, the “relative binding free energy” value was determined as 0.19 kcal/mol.
Regarding AAGGGCACGTGAGTAA, the “relative binding free energy” value is 0.16 kcal/mol.
The value for TTGTGCACGTGCAATG was -0.03 kcal/mol.
For GCGTGCACGTGGGATG, the “relative binding free energy” value was -0.23 kcal/mol.
In the case of TGTTCCACGTGATGGT, the “relative binding free energy” value came to 0.2 kcal/mol.
In the case of GGTCGCACGTGCGTGA, the “relative binding free energy” value was -0.03 kcal/mol.
With GGGTTCACGTGTGTTA the figure was 0.36 kcal/mol.
Take CGGTGCACGTGAGAAG: the “relative binding free energy” value came to 0.19 kcal/mol.
On to GGCCGCACGTGGGTGT, for which the “relative binding free energy” value is -0.24 kcal/mol.
GCTTTCACGTGGAAGG: the “relative binding free energy” value was determined as 0.31 kcal/mol.
The value for CTAATCACGTGAGTTT was 0.22 kcal/mol; that for TATGTCACGTGCTAGT was -0.01 kcal/mol.
With CGTGCCACGTGTGGTG the figure was -0.17 kcal/mol; with AGGAGCACGTGGTAGT, -0.13 kcal/mol.
With ATGGTCACGTGGTTGG the figure was 0.11 kcal/mol; with CTGGGCACGTGGCGTA, -0.32 kcal/mol; with GGTCTCACGTGTTGTT, 0.28 kcal/mol.
Turning to TTGGTCACGTGCGCAT, the “relative binding free energy” value was -0.03 kcal/mol.
The value for ATAAGCACGTGATTTT was 0.1 kcal/mol.
Regarding GGAGTCACGTGAGTGC, the “relative binding free energy” value came out at 0.37 kcal/mol.
CGTGTCACGTGTCGAT: the “relative binding free energy” value came out at 0.09 kcal/mol.
With GTGTTCACGTGTCAAT the figure was 0.39 kcal/mol; with AGGACCACGTGTTGGT, -0.11 kcal/mol.
The value for AGATTCACGTGTAATT was 0.33 kcal/mol; that for TGTATCACGTGGATGG was 0.17 kcal/mol; that for AGCGTCACGTGTTGCT was 0.14 kcal/mol.
With AGGGTCACGTGCGGCA the figure was 0.01 kcal/mol; with TTTTCCACGTGTGCAA, 0.26 kcal/mol; with GGCGTCACGTGTGGGA, 0.2 kcal/mol.
Take TGTTTCACGTGTGTAC: the “relative binding free energy” value turned out to be 0.18 kcal/mol.
Take TGTTCCACGTGATGAG: the “relative binding free energy” value is 0.18 kcal/mol.
With AAGGTCACGTGGAAGT the figure was 0.05 kcal/mol; with TTCGCCACGTGTGTGT, -0.1 kcal/mol; with AAAGGCACGTGTAAGG, -0.09 kcal/mol.
With TGAGGCACGTGTTAGC, the “relative binding free energy” value was -0.06 kcal/mol.
TAAAGCACGTGTGGTG: the “relative binding free energy” value was -0.12 kcal/mol.
With ATATGCACGTGTAGTG the figure was 0 kcal/mol.
The value for ATATGCACGTGCTTGG was -0.19 kcal/mol; that for TGTTACACGTGGGCAT was 0.03 kcal/mol.
With AAGATCACGTGTGTGT the figure was 0.16 kcal/mol; with ATTGTCACGTGTTAGT, 0.06 kcal/mol; with CGTGACACGTGGGAGG, -0.19 kcal/mol.
Regarding GTGCACACGTGTAGTT, the “relative binding free energy” value stood at 0.1 kcal/mol.
With TCTTTCACGTGCGATT the figure was 0.52 kcal/mol.
As to TAACTCACGTGGTTGA, the “relative binding free energy” value is 0.09 kcal/mol.
The value for GAAGGCACGTGTCGAG was 0.08 kcal/mol.
On to GTGATCACGTGATTTT, for which the “relative binding free energy” value was 0.33 kcal/mol.
TTCTGCACGTGGTAAT: the “relative binding free energy” value is -0.02 kcal/mol.
The value for TTCTTCACGTGTGCGT was 0.29 kcal/mol.
For GAAGTCACGTGAGTAG, the “relative binding free energy” value was found to be 0.36 kcal/mol.
With CGGCACACGTGCGGGG the figure was -0.02 kcal/mol; with TAGTGCACGTGACGGC, 0.17 kcal/mol.
With ACGGTCACGTGGTGAT the figure was 0.03 kcal/mol.
Turning to GGGTTCACGTGGTTTC, the “relative binding free energy” value was determined as 0.24 kcal/mol.
Take AGTTGCACGTGGTCCT: the “relative binding free energy” value was -0.03 kcal/mol.
Consider TATGACACGTGTATGA, for which the “relative binding free energy” value is 0.06 kcal/mol.
TATTGCACGTGGGGTT: the “relative binding free energy” value is -0.12 kcal/mol.
The value for AAGGTCACGTGGTGAC was 0.05 kcal/mol; that for CGGGGCACGTGATAGG was -0.06 kcal/mol; that for TAGTTCACGTGCGCGG was 0.17 kcal/mol.

(Values after the BET-seq Pho4 binding data (Le et al. 2018).)
